Test results as given in patent US20250214977A1, “STAT6 INHIBITORS AND USES THEREOF” (Kymera Therapeutics, Inc., priority 2024, published 2025).

Target: T1, biotinylated truncated STAT6 (123-632)-avi (Homo sapiens, UniProt P42226)
T1 sequence (P42226 123-632 limits assumed): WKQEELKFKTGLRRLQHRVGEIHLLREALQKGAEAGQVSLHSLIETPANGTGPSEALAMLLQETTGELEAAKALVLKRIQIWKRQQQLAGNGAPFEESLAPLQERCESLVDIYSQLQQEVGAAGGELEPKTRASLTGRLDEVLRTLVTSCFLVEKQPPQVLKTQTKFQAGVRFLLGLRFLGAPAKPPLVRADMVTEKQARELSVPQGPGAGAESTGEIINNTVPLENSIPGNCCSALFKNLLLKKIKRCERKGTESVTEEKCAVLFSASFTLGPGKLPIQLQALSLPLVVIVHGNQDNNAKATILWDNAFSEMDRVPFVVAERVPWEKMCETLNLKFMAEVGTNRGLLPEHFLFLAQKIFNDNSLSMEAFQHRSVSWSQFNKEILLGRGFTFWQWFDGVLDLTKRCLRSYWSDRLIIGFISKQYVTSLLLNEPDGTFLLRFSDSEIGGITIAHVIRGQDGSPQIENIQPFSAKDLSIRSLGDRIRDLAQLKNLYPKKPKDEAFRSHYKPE
Assay: Homogenous Time-Resolved Fluorescence (HTRF) binding assay
Details: 0.15 nM biotinylated truncated STAT6 (123-632)-avi, 20 nM fluorescein-labeled probe

| Compound | pIC50 (30 minutes at room temperature) | pIC50 (30 minutes room temperature) |
| --- | --- | --- |
| CN(C)C(=O)c1cc2ccc(C3=CCCN(C(=O)C4CCCS4(=O)=O)C3)cc2[nH]1 (stereo not drawn) [Example I-40] | 4.00 to 5.00 | – |
| CCc1cc(C(F)F)ncc1-c1cc(C2=CCCN(C(=O)CCn3ccnn3)C2)c(F)c2[nH]c(C(=O)N3Cc4cnn(CC)c4C3)cc12 [Example I-767] | < 4.00 | – |
| COc1ccccc1-c1cc(C2=CCCN(C(=O)CCn3ccnn3)C2)c(F)c2[nH]c(C(=O)N3CCC(C)(O)C3)cc12 (stereo not drawn) [Example I-1006] | 6.00 to 7.00 | – |
| CCC(O)CN1CCN(C(=O)c2cc3ccc(C4=CCCN(C(=O)CCn5ccnn5)C4)c(F)c3[nH]2)CC1 (stereo not drawn) [Example I-1628] | – | 5.00 to 6.00 |
| CN(C)C(=O)c1cc2c(F)c(C3=CCCN(C(=O)C4Cc5ccccc5CN4C=O)C3)ccc2o1 (stereo not drawn) [Example I-1192] | 5.00 to 6.00 | – |
| COc1ccccc1-c1cc(C2=CCCN(C(=O)CCn3ccnn3)C2)c(F)c2[nH]c(C(=O)N3CCC[C@H](C(=O)N4CCCCC4)C3)cc12 [Example I-1596] | – | 6.00 to 7.00 |
| CN(C)C(=O)c1ccc2c(C3=CCCN(C(=O)CCn4ccnn4)C3)c[nH]c2c1 [Example I-317] | 5.00 to 6.00 | – |
| COc1ccccc1-c1cc(C2=CCCN(C(=O)CCn3ccnn3)C2)c(F)c2[nH]c(C(=O)N3CCC(=O)N(C)CC3)cc12 [Example I-994] | > 7.00 | – |
| COc1ccccc1-c1cc(C2=CCCN(C(=O)CCn3ccnn3)C2)c(F)c2[nH]c(C(=O)N3CCN(c4cc(CO)ccn4)CC3)cc12 [Example I-1357] | – | > 7.00 |
| COc1ccccc1-c1cc(C2=CCCN(C(=O)CCn3ccnn3)C2)c(F)c2[nH]c(C(=O)N3CCN(Cc4ccc(Cl)cc4)CC3)cc12 [Example I-868] | 6.00 to 7.00 | – |
| (1S)-3-[4-(4-ethyl-3-pyridyl)-7-fluoro-2-[4-(5-fluoro-3-methoxy-2-pyridyl)piperazine-1-carbonyl]-1H-indol-6-yl]cyclohex-3-ene-1-carboxylic acid [Example I-809] | > 7.00 | – |
| COc1ccccc1-c1cc(C2=CCCN(C(=O)CCn3ccnn3)C2)c(F)c2[nH]c(C(=O)N3CCc4ncccc43)cc12 [Example I-974] | > 7.00 | – |
| COc1ccccc1-c1cc(C2=CCCN(C(=O)CCn3ccnn3)C2)c(F)c2[nH]c(C(=O)N3CCN(c4ncc(F)c(O)n4)CC3)cc12 [Example I-1453] | – | > 7.00 |
| COc1c(-c2cc(C3=CCCN(C(=O)CCn4ccnn4)C3)c(F)c3[nH]c(C(=O)N4CCN(C5CC5)CC4)cc23)cnc2ccccc12 [Example I-449] | > 7.00 | – |
| COc1ccccc1-c1cc(C2=CCCN(C(=O)CCn3ccnn3)C2)c(F)c2[nH]c(C(=O)N3CCC(c4ccccc4OC)CC3)cc12 [Example I-422] | > 7.00 | – |
| COc1cnc(N2CCN(C(=O)c3cc4c(-c5ccncc5OC)cc(C5=CCCN(C(=O)CCn6ccnn6)C5)c(F)c4[nH]3)CC2)c(OC)c1 [Example I-436] | > 7.00 | – |
| CN(C)C(=O)c1cc2cc(C3=CCCN(C(=O)CCn4ccnn4)C3)cc(NCc3ccccc3C3CC3)c2o1 [Example I-878] | > 7.00 | – |
| COc1ccccc1-c1cc(C2=CCCN(C(=O)CCn3ccnn3)C2)c(F)c2[nH]c(C(=O)N3CCN(c4ncccc4C(C)C)CC3)cc12 [Example I-333] | > 7.00 | – |
| CN(C)C(=O)c1cc2ccc(C3=CCCN(C(=O)C4CN(Cc5ccccc5)CCO4)C3)cc2[nH]1 (stereo not drawn) [Example I-100] | 4.00 to 5.00 | – |
| CCn1nccc1NC(=O)c1cc2c(-c3ccccc3OC)cc(C3=CCCN(C(=O)CCn4ccnn4)C3)c(F)c2[nH]1 [Example I-1394] | – | > 7.00 |
| COc1ccccc1-c1cc(C2=CCCN(C(=O)CCn3ccnn3)C2)c(F)c2[nH]c(C(=O)N3CCN(c4ccc(OC)c(OC)c4OC)CC3)cc12 [Example I-922] | 6.00 to 7.00 | – |
| COCOc1cc(F)ccc1-c1cc(C2=CCCN(C(=O)CCn3ccnn3)C2)c(F)c2[nH]c(C(=O)N3CCN(c4ncc(F)cc4OC)CC3)cc12 [Example I-670] | > 7.00 | – |
| COc1cc(F)cnc1N1CCN(C(=O)c2cc3c(-c4ccc(CN5CCOCC5)cc4)cc(C4=CCCN(C(=O)CCn5ccnn5)C4)c(F)c3[nH]2)CC1 [Example I-1122] | > 7.00 | – |
| COc1ccccc1-c1cc(C2=CCCN(C(=O)C(C)C)C2)c(F)c2cc(C(=O)N(C)C)oc12 [Example I-1190] | 6.00 to 7.00 | – |
| O=C(CCn1ccnn1)N1CCC=C(c2ccc3oc(-c4cnc(C5CC5)nc4)cc3c2)C1 [Example I-1276] | – | 4.00 to 5.00 |
| COc1ccccc1-c1cc(C2=CCCN(C(=O)CCn3ccnn3)C2)c(F)c2[nH]c(C(=O)N3CCN(Cc4cccn(C)c4=O)CC3)cc12 [Example I-1198] | > 7.00 | – |
| COc1ccccc1-c1cc(C2=CCCN(C(=O)CCn3ccnn3)C2)c(F)c2[nH]c(C(=O)N3Cc4cn(-c5ncccc5OC)cc4C3)cc12 [Example I-417] | > 7.00 | – |

| Compound | pIC50 (30 minutes at room temperature) | pIC50 (30 minutes room temperature) |
| --- | --- | --- |
| COc1ccccc1-c1cc(C2=CCCN(C(=O)CCn3ccnn3)C2)c(F)c2[nH]c(C(=O)N3CCN(c4ncc(N5CCCCC5)cc4OC4CC4)CC3)cc12 [Example I-961] | > 7.00 | – |
| COc1ccccc1-c1cc(C2=CCCN(C(=O)CCn3ccnn3)C2)c(F)c2[nH]c(C(=O)N3CCN(c4cc(C)c5ncnn5c4)CC3)cc12 [Example I-909] | > 7.00 | – |
| CN(C)C(=O)c1cc2cc(C3=CCCN(C(=O)C(Cn4ccnn4)c4cccc(CO)c4)C3)ccc2o1 (stereo not drawn) [Example I-833] | 6.00 to 7.00 | – |
| COc1cc(F)cnc1N1CCN(C(=O)c2cc3c(C4=CCN(Cc5ccccc5)CC4)cc(C4=CCCN(C(=O)CCn5ccnn5)C4)c(F)c3[nH]2)CC1 [Example I-1132] | > 7.00 | – |
| CN(C)C(=O)c1nc2cc(C3=CCCN(C(=O)CCn4ccnn4)C3)ccc2o1 [Example I-214] | 4.00 to 5.00 | – |
| COc1ccccc1-c1cc(C2=CCCN(C(=O)CCn3ccnn3)C2)c(F)c2[nH]c(C(=O)N3CCN(c4c(O)ccc5ccccc45)CC3)cc12 [Example I-965] | 6.00 to 7.00 | – |
| COc1ccccc1N1CCN(C(=O)c2cc3c(-c4cnc5ccccc5c4OC)cc(C4=CCCN(C(=O)CCn5ccnn5)C4)c(F)c3[nH]2)CC1 [Example I-448] | > 7.00 | – |
| COc1cccnc1N1CCN(C(=O)c2cc3c(C4CCN(C)C4)cc(C4=CCCN(C(=O)CCn5ccnn5)C4)c(F)c3[nH]2)CC1 (stereo not drawn) [Example I-585] | > 7.00 | – |
| COc1cc(F)cnc1N1CCN(C(=O)c2cc3c(-c4ccn(-c5ccccc5)n4)cc(C4=CCCN(C(=O)CCn5ccnn5)C4)c(F)c3[nH]2)CC1 [Example I-1113] | 6.00 to 7.00 | – |
| CN(C)C(=O)c1cc2c(F)c(C3=CCCN(C(=O)[C@@H]4Cc5ccccc5CN4C=O)C3)ccc2o1 (single isomer, unassigned) [Example I-375] | > 7.00 | – |
| COc1ccccc1-c1cc(C2=CCCN(C(=O)CCn3ccnn3)C2)c(F)c2[nH]c(C(=O)N3CCN(Cc4ncccc4O)CC3)cc12 [Example I-1427] | – | > 7.00 |
| CCc1cc(C)ncc1-c1cc(C2=CCCN(C(=O)CCn3ccnn3)C2)nc2[nH]c(C(=O)N3CCN(c4ncc(F)cc4OC)CC3)cc12 [Example I-1237] | – | 6.00 to 7.00 |
| COc1ccc(C)cc1-c1cc(C2=CCCN(C(=O)C3Cc4ccccc4CN3C=O)C2)cc2cc(C(=O)N(C)C)oc12 (racemic) [Example I-1196] | > 7.00 | – |
| COc1ccccc1-c1cc(C2=CCCN(C(=O)CCn3ccnn3)C2)c(F)c2[nH]c(C(=O)N3CCN(c4ccc(F)cc4OC)CC3)cc12 [Example I-431] | > 7.00 | – |
| COc1ccccc1-c1cc(C2=CCCN(C(=O)CCn3ccnn3)C2)c(F)c2[nH]c(C(=O)N3CCN(c4ccc5[nH]cnc5n4)CC3)cc12 [Example I-1431] | – | > 7.00 |
| CN(C)C(=O)c1cc2cc(C3=CCCN(C(=O)CCn4ccnn4)C3)cc(NCc3ccc(C(F)(F)F)cc3)c2o1 [Example I-877] | 6.00 to 7.00 | – |
| CCn1ncc2c1CN(C(=O)c1cc3c(-c4ccc(C5CC5)nc4C)cc(C4=CCCN(C(=O)CCn5ccnn5)C4)c(F)c3[nH]1)C2 [Example I-762] | < 4.00 | – |
| COc1cc(F)ccc1-c1cc(C2=CCCN(C(=O)CCn3ccnn3)C2)c(F)c2[nH]c(C(=O)N3CCN(c4ccccc4OC)CC3)cc12 [Example I-598] | > 7.00 | – |
| CN(C)C(=O)c1cc2ccc(C3=CCCN(C(=O)Cc4cccc(C(N)=O)c4)C3)c(F)c2[nH]1 [Example I-1234] | – | 6.00 to 7.00 |
| CCc1ccc(-c2cc(C(=O)N3CCN(c4ncc(F)cc4OC)CC3)cc3cc(C4=CCCN(C(C)=O)C4)n(CC4CC4)c23)c(C)n1 [Example I-793] | > 7.00 | – |
| COc1ccccc1-c1cc(C2=CCCN(C(=O)CCn3ccnn3)C2)c(F)c2[nH]c(C(=O)N3CCNC(C)C3)cc12 (stereo not drawn) [Example I-1360] | – | > 7.00 |
| CC(=O)N1CCC=C(c2cc(-c3cc(C)nn3C)c3cc(C(=O)N(C)C)[nH]c3c2F)C1 [Example I-1498] | – | 6.00 to 7.00 |
| CC(=O)NCc1ccccc1-c1ccccc1CC(=O)N1CCC=C(c2ccc3oc(C(=O)N(C)C)cc3c2)C1 [Example I-219] | 4.00 to 5.00 | – |
| COc1ccccc1-c1cc(C2=CCCN(C(=O)CCn3ccnn3)C2)c(F)c2[nH]c(C(=O)N3CCC(c4ccncc4)C3)cc12 (stereo not drawn) [Example I-1560] | – | > 7.00 |
| O=C(CCn1ccnn1)N1CCC=C(c2ccc3oc(C(=O)N4CCCC4)cc3c2)C1 [Example I-1601] | – | 5.00 to 6.00 |
| COC(=O)[C@H]1CC[C@@H](c2ccc3oc(C(=O)N(C)C)cc3c2)CN1C(=O)CCn1ccnn1 (single isomer, unassigned) [Example I-151] | 4.00 to 5.00 | – |
| CN(C)C(=O)c1cc2cc(C3=CCCN(C(=O)CCn4ccnn4)C3)cc(NC[C@@H]3CCC(=O)N3C)c2o1 [Example I-896] | 6.00 to 7.00 | – |

pIC50: −log10 of the molar value.
